# PubChem BioAssay AID2675 (National Center for Advancing Translational Sciences (NCATS), 2010)
# The whole screen tested about 280,000 compounds, of which about 100 (0.036%) were called active. The shares of active, inactive and inconclusive entries below differ from those in the screen. The call rests on the fitted dose curve; in most records, active means well fitted inhibition curve with a large enough effect in the signal ratio, with a control signal flat (not every such curve was filed as active); inconclusive means small, poorly fitted or top-dose-only effect, or effect the other way, or a change in a side signal; inactive means no such curve, though single readings can be large or run the other way; the % refers to the signal ratio. Potencies beside an inconclusive call are fits to weak or partial responses and may not hold up. “Side channel” marks fits to a control or component signal instead of the main read-out.
# Molecular target: Muscleblind-like protein 1 (Homo sapiens) (UniProt Q9NR56)
# UniProt Q9NR56, sequence (Q9NR56 whole entry, looked up): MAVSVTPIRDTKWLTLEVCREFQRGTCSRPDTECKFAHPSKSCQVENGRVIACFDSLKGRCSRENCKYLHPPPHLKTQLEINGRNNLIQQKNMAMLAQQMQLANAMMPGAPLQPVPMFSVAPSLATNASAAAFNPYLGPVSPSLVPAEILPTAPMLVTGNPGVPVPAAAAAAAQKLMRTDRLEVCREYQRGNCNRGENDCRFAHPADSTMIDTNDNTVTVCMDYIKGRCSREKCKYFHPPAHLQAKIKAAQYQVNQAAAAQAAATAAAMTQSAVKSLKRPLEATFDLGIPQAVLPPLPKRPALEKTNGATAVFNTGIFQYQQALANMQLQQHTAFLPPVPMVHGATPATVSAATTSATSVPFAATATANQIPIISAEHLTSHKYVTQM
# Assay: qHTS Assay for Inhibitors of MBNL1-poly(CUG) RNA binding
# Settings: TR-FRET MBNL1-His/biotin-(CUG)12 binding, 665/545 ratio; activity change, negative = inhibition: at 57.5 µM (top of the series)
# Method in brief: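 TR-FRET readout: Ex 340 nm, 665/545 nm emission ratio, normalized to buffer-only (basal) and MBNL1-(CUG)12 controls. Complex of MBNL1-His with Biotin-(CUG)12, compounds 92 nM–58 uM, incubated 60 min at room temperature.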
# On the % scale 0 is the no-effect control and ±100 the full control effect; potency means the concentration at half of the fitted maximal effect; tags describe the fitted curve by direction and shape or compound fluorescence and quenching.
Compound,Potency,"activity change, negative = inhibition"
O=[N+]([O-])c1ccc(O)c(/C=N/n2c(-c3ccccc3)n[nH]c2=S)c1,inactive,
Cc1cc([N+](=O)[O-])cc2c1NC(=O)C2(O)N1CCOCC1 (stereo not drawn),"inconclusive: 25.1 µM [quencher, side channel, partial curve]",
C=CCn1c(C(CC)CC)nc2ccccc21,inactive,
Cn1cc([N+](=O)[O-])c(C(=O)N/N=C/c2cc3c(cc2Br)OCO3)n1,"inconclusive: 2.24 µM [quencher, side channel, full curve]",
Cc1nnc(NC(=O)C(c2ccccc2)c2ccccc2)s1,inactive,
CCOc1ccc2c(c1)c1nnc(SCC3CCCO3)nc1n2C (stereo not drawn),"inconclusive: 11.2 µM [quencher, partial curve]",
COc1cc(C(=O)NCC(=O)N/N=C/c2ccc(-c3ccc([N+](=O)[O-])cc3)o2)cc(OC)c1OC,"inconclusive: 15.8 µM [quencher, side channel, partial curve]",
COc1ccc(C(C)=O)cc1COc1cccnc1[N+](=O)[O-],"inconclusive: 15.8 µM [quencher, partial curve]",
CC(=O)c1ccc(NC(=S)NC(=O)Cc2ccc(Cl)cc2)cc1,inactive,
COc1ccc2c(c1)n([O-])c1c([n+]2=O)CCC1,"inconclusive: 15.8 µM [quencher, side channel, partial curve]",
COc1ccc(/C=N/NC(=O)c2ccc(O)cc2)cc1CN1CCCc2ccccc21,"inconclusive: 22.4 µM [quencher, side channel, partial curve]",
COc1ccc(NC2CCCN(C(=O)CN3C(=O)c4ccccc4C3=O)C2)cc1OC (stereo not drawn),"inconclusive: 8.91 µM [quencher, side channel, partial curve]",
CCC(CC)C(=O)Nc1cc([N+](=O)[O-])ccc1F,"inconclusive: 31.6 µM [quencher, side channel, single point]",
N#Cc1cc2c(=O)n3ccccc3nc2n(CCCn2ccnc2)c1=N,"inconclusive: 12.6 µM [quencher, partial curve]",
O=[N+]([O-])c1ccc2[nH]c(O)c(N=NC(=S)NCC3CCCO3)c2c1 (stereo not drawn),inactive,
CC1CCN(S(=O)(=O)c2ccc3c(c2)N(CC(=O)NCCN2C(C)CCCC2C)C(=O)CS3)CC1 (stereo not drawn),inactive,
c1ccc(N2CCN(c3ccc4nncn4n3)CC2)nc1,inactive,
COc1ccc2oc(=O)c(C(=O)NCC3CCCO3)cc2c1 (stereo not drawn),"inconclusive: 11.2 µM [quencher, partial curve]",
O=C(NC12CC3CC(CC(C3)C1)C2)c1cc([N+](=O)[O-])ccc1Cl,"inconclusive: 17.8 µM [quencher, side channel, partial curve]",
CCOC(=O)c1sc(NC(=O)COc2ccc3c(c2)OCO3)nc1C,"inconclusive: 35.5 µM [fluorescent, side channel, single point]",
CCOC(=O)CSC1=C(C#N)C(=O)NC(c2ccc(OC)c(OC)c2)S1 (stereo not drawn),inactive,

Compound,Potency,"activity change, negative = inhibition"
CC(C)(C)NC(=O)C(=O)NNC(=O)c1ccc(C(C)(C)C)cc1,inactive,
Cn1cc(/C=N\O)nc2c(=O)n(-c3ccccc3)c(=O)nc1-2,"inconclusive: 14.1 µM [quencher, side channel, partial curve]",
CCSc1nnc2ccc(-c3ccco3)nn12,"inconclusive: 15.8 µM [quencher, side channel, partial curve]",
Cc1cccc(NC(=O)c2ccc([N+](=O)[O-])o2)c1,"inconclusive: 11.2 µM [quencher, side channel, partial curve]",
COc1ccc(/C=C2\SC(=O)N(CC(=O)N(C)C3CCS(=O)(=O)C3)C2=O)cc1 (stereo not drawn),"inconclusive: 8.91 µM [quencher, side channel, full curve]",
COc1ccc(-c2nn(CCC(=O)O)cc2/C=C2\SC(N)=NC2=O)cc1OC,"inconclusive: 11.2 µM [quencher, side channel, partial curve]",
COc1cc(/C=N/NC(=O)C(N)=O)cc(OC)c1O,"inconclusive: 20 µM [quencher, side channel, single point]",
COc1ccc(N/C(C)=C2/C(=O)C(=O)N(CCO)C2c2ccc(Br)cc2)cc1 (stereo not drawn),"inconclusive: 31.6 µM [quencher, side channel, partial curve]",
CO/N=C/c1ccc(Oc2ccc(C)cc2)c([N+](=O)[O-])c1,"inconclusive: 31.6 µM [quencher, side channel, single point]",
CCCCCC1CC(CC(=O)Nc2ccc([N+](=O)[O-])cc2)OC1=O (stereo not drawn),inactive,
CCn1c(O)c(N=NC2=NC(=O)CS2)c2ccccc21,"inconclusive: 15.8 µM [quencher, side channel, partial curve]",
Cn1cc2cc([N+](=O)[O-])ccc2n1,"inconclusive: 15.8 µM [quencher, partial curve]",
CCNC(=O)COC(=O)CCC(=O)c1cccs1,"inconclusive: 2.82 µM [fluorescent, side channel, full curve, poor fit]",
Cc1cc(C)nc(SCc2cc(=O)c(OC(=O)c3ccc(Cl)c([N+](=O)[O-])c3)co2)n1,,inconclusive: 25.2% [phenotype inactive]
COc1ccc(C(=S)N2CCOCC2)cc1OC(=O)c1ccc([N+](=O)[O-])cc1[N+](=O)[O-],"inconclusive: 14.1 µM [quencher, side channel, partial curve]",
Cc1c(Br)c([N+](=O)[O-])nn1CC(=O)Nc1ccc(C(N)=O)cc1,"inconclusive: 39.8 µM [quencher, side channel, single point]",
COCCOC1CCN(C(=O)c2cc(COc3ccc(-n4cncn4)cc3)on2)CC1,inactive,
NS(=O)(=O)c1ccc(CCNC(=O)CSc2ccc(Cl)cc2)cc1,"inconclusive: 0.141 µM [quencher, side channel, full curve, poor fit]",
CC(C)(C)NC(=O)CSC(=Nc1ccccc1F)NC#N,"inconclusive: 39.8 µM [quencher, side channel, single point]",
Cc1ccsc1/C=N/N1CCN(Cc2ccccc2)CC1,inactive,
CC(C)(C)n1c(O)c2ccc(C(=O)N=NC(=O)c3ccccc3)cc2c1O,"inconclusive: 3.16 µM [quencher, side channel, full curve]",

Compound,Potency,"activity change, negative = inhibition"
Cc1ccc(NC(=O)C2CCN(S(=O)(=O)c3cccc4nonc34)CC2)nc1,"inconclusive: 14.1 µM [quencher, side channel, partial curve]",
O=C1C(Cl)=C(Nc2ccccc2)C(=O)c2ccccc21,"inconclusive: 2.82 µM [quencher, side channel, full curve]",
O=C(N/N=C/c1ccco1)c1cc(-c2cccs2)[nH]n1,"inconclusive: 28.2 µM [quencher, side channel, single point]",
CCCC(=O)Nc1nnc(SCC(=O)Nc2ccc3c(c2)OCO3)s1,"inconclusive: 39.8 µM [fluorescent, side channel, single point]",
Cc1cc(C)nc(SCC(=O)NC2=NN=C(c3ccc(Br)cc3)CS2)n1,inactive,
O=C1N/C(=N/N=C/c2ccc(O)cc2)SC1Cc1ccccc1 (stereo not drawn),inactive,
COc1ccc(C(=O)c2cnc(/N=C/N(C)C)s2)cc1,"inconclusive: 12.6 µM [quencher, side channel, partial curve]",
COC(CNC(=O)C1CCC(CNS(=O)(=O)c2c(C)cc(C)cc2C)CC1)OC (stereo not drawn),inactive,
CC1(C)COC(/C=C/c2cccc([N+](=O)[O-])c2)=N1,"inconclusive: 25.1 µM [quencher, side channel, partial curve]",
O=C(CC1CC2CCC1C2)NCc1cccs1 (stereo not drawn),"inconclusive: 39.8 µM [quencher, side channel, single point]",
Cc1ccccc1CN1C[C@@H]2C[C@@H](c3ccc4nsnc4c3)N3CCC[C@@]23C1=O,"inconclusive: 14.1 µM [quencher, side channel, partial curve]",
O=c1/c(=C/c2ccco2)sc2n1CN(c1ccccc1)CN=2,"inconclusive: 28.2 µM [quencher, single point]",
Oc1cccc2c(NC(=S)Nc3ccc(OC(F)F)cc3)cccc12,"inconclusive: 11.2 µM [quencher, side channel, partial curve, poor fit]",
CC(C)(C)C(=O)Nc1ccc(-c2cn3cccnc3n2)cc1,"inconclusive: 14.1 µM [quencher, side channel, partial curve]",
O=C(CCc1ccccc1)Nc1ccnn1C1CCN(C/C=C/c2ccccc2)CC1,inactive,
c1ccc(Nc2nc3ccccc3[nH]2)nc1,inactive,
CCCC1(c2ccccc2)NC(=O)N(CC(=O)Nc2cc(C)ccc2OC)C1=O (stereo not drawn),"inconclusive: 35.5 µM [fluorescent, side channel, single point]",
CCNC(=S)N1CCN(c2ccc([N+](=O)[O-])cc2)CC1,"inconclusive: 11.2 µM [quencher, side channel, partial curve]",
Cc1nc(COC(=O)c2ccc(S(=O)(=O)N3CCCC3)cc2)cs1,inactive,
COc1ccccc1OCCNC(=O)/C=C/c1ccc([N+](=O)[O-])cc1,"inconclusive: 12.6 µM [quencher, side channel, partial curve]",
COc1ccc(Nc2nc3nonc3nc2N2CCCCC2)cc1,"inconclusive: 15.8 µM [quencher, side channel, partial curve]",
